No constants are given. Whether binding was seen depends on the method and setting. Some results given as binding are weak or reduced against the parent protein; the word gives no strength.
Tests used:
Assay in all cases: two-hybrid; pair-wise; GAL4 DNA-binding domain (pPC97) and GAL4 activation domain (pPC86) fusions co-transformed into yeast strain CG1945; growth on SD/-Trp-Leu-His with 1 mM 3AT
[1] = biological target: T1, isopropylmalate dehydrogenase 3 (IPMDH3) (Arabidopsis thaliana) (UniProt Q9SA14)
T1 sequence: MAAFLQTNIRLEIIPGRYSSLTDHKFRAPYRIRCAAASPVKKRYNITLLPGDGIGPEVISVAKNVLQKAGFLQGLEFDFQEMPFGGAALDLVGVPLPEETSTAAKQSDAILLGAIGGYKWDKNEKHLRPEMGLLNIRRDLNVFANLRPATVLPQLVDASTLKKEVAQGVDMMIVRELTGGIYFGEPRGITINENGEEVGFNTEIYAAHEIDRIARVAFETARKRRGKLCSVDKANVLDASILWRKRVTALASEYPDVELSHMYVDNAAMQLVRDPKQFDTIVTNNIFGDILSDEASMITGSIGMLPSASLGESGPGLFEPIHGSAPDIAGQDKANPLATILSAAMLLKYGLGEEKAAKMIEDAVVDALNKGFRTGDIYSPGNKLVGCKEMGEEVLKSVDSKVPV

[2] = biological target: T2, isopropylmalate dehydrogenase 2 (IPMDH2) (Arabidopsis thaliana) (UniProt P93832)
T2 sequence: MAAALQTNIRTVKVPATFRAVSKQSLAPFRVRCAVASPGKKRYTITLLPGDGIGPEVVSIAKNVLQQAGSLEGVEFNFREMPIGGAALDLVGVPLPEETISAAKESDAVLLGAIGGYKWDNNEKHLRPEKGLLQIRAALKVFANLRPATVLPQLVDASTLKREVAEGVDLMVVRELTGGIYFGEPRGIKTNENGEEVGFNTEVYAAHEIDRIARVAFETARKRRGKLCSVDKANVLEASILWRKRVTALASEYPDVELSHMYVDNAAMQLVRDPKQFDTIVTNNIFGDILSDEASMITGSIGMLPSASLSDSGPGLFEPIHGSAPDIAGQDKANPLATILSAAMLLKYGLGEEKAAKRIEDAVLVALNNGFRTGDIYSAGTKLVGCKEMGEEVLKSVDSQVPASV

[3] = biological target: T3, isopropylmalate dehydrogenase 1 (IPMDH1) (Arabidopsis thaliana) (UniProt Q9FMT1)
T3 sequence: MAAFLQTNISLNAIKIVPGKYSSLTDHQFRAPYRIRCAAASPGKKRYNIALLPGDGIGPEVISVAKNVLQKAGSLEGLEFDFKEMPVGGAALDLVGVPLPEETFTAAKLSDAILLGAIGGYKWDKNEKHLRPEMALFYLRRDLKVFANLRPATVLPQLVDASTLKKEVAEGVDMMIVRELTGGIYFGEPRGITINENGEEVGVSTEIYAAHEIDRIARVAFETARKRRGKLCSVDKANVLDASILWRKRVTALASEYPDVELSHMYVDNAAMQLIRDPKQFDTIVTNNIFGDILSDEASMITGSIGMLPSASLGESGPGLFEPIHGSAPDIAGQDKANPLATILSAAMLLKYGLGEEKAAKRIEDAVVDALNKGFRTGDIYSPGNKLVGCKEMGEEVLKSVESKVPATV

[4] = biological target: T4, isopropylmalate isomerase (IPMI) small subunit LeuD2 (Arabidopsis thaliana) (UniProt Q9LYT7)
T4 sequence: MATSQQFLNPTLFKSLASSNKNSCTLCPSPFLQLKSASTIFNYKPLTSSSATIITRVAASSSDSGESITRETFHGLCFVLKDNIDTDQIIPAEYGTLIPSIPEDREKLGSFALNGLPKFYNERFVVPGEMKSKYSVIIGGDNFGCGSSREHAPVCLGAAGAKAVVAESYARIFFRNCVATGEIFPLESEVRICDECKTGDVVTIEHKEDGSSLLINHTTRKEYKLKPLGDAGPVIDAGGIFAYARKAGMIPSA

[5] = biological target: T5, isopropylmalate isomerase (IPMI) small subunit LeuD3 (Arabidopsis thaliana) (UniProt Q9ZW85)
T5 sequence: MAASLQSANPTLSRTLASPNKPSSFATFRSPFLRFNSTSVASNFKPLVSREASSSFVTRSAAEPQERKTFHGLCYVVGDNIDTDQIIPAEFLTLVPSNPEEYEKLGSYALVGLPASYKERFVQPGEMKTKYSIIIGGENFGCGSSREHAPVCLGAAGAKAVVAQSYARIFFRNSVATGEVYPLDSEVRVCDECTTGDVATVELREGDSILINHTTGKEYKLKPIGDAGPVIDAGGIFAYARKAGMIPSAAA

[6] = biological target: T6, methylthioalkylmalate synthase 3 (MAM3) (Arabidopsis thaliana) (UniProt Q9FN52)
T6 sequence: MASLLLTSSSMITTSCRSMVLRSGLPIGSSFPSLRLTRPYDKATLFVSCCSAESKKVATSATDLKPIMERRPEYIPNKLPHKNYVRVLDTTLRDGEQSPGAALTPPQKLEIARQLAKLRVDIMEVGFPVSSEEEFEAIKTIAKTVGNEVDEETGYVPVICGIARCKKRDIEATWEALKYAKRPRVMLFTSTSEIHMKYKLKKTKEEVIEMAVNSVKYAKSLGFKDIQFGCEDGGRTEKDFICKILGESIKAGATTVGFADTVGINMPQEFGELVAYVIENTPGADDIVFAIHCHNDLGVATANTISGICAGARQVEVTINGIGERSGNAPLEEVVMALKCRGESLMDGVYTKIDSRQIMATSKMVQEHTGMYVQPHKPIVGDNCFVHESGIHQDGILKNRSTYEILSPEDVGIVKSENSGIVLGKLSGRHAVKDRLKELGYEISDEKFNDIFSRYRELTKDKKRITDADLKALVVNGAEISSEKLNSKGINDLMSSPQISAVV

[7] = biological target: T7, isopropylmalate isomerase (IPMI) small subunit LeuD1 (Arabidopsis thaliana) (UniProt Q9ZW84)
T7 sequence: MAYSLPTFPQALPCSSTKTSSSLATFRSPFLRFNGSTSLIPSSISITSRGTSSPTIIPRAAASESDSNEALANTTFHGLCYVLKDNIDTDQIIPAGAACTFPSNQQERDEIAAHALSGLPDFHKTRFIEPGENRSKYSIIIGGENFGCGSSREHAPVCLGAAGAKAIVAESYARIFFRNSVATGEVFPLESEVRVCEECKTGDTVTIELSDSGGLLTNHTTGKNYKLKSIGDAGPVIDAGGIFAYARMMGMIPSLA

B1: isopropylmalate dehydrogenase 1 (IPMDH1) (enzyme, UniProt Q9FMT1 1-409)
chain: MAAFLQTNISLNAIKIVPGKYSSLTDHQFRAPYRIRCAAASPGKKRYNIALLPGDGIGPEVISVAKNVLQKAGSLEGLEFDFKEMPVGGAALDLVGVPLPEETFTAAKLSDAILLGAIGGYKWDKNEKHLRPEMALFYLRRDLKVFANLRPATVLPQLVDASTLKKEVAEGVDMMIVRELTGGIYFGEPRGITINENGEEVGVSTEIYAAHEIDRIARVAFETARKRRGKLCSVDKANVLDASILWRKRVTALASEYPDVELSHMYVDNAAMQLIRDPKQFDTIVTNNIFGDILSDEASMITGSIGMLPSASLGESGPGLFEPIHGSAPDIAGQDKANPLATILSAAMLLKYGLGEEKAAKRIEDAVVDALNKGFRTGDIYSPGNKLVGCKEMGEEVLKSVESKVPATV
binding [1]: binds | binding [2]: binds | binding [3]: binds

B2: isopropylmalate dehydrogenase 2 (IPMDH2) (enzyme, UniProt P93832 1-405)
chain: MAAALQTNIRTVKVPATFRAVSKQSLAPFRVRCAVASPGKKRYTITLLPGDGIGPEVVSIAKNVLQQAGSLEGVEFNFREMPIGGAALDLVGVPLPEETISAAKESDAVLLGAIGGYKWDNNEKHLRPEKGLLQIRAALKVFANLRPATVLPQLVDASTLKREVAEGVDLMVVRELTGGIYFGEPRGIKTNENGEEVGFNTEVYAAHEIDRIARVAFETARKRRGKLCSVDKANVLEASILWRKRVTALASEYPDVELSHMYVDNAAMQLVRDPKQFDTIVTNNIFGDILSDEASMITGSIGMLPSASLSDSGPGLFEPIHGSAPDIAGQDKANPLATILSAAMLLKYGLGEEKAAKRIEDAVLVALNNGFRTGDIYSAGTKLVGCKEMGEEVLKSVDSQVPASV
binding [1]: binds | binding [2]: binds

B3: isopropylmalate dehydrogenase 3 (IPMDH3) (enzyme, UniProt Q9SA14 1-404)
chain: MAAFLQTNIRLEIIPGRYSSLTDHKFRAPYRIRCAAASPVKKRYNITLLPGDGIGPEVISVAKNVLQKAGFLQGLEFDFQEMPFGGAALDLVGVPLPEETSTAAKQSDAILLGAIGGYKWDKNEKHLRPEMGLLNIRRDLNVFANLRPATVLPQLVDASTLKKEVAQGVDMMIVRELTGGIYFGEPRGITINENGEEVGFNTEIYAAHEIDRIARVAFETARKRRGKLCSVDKANVLDASILWRKRVTALASEYPDVELSHMYVDNAAMQLVRDPKQFDTIVTNNIFGDILSDEASMITGSIGMLPSASLGESGPGLFEPIHGSAPDIAGQDKANPLATILSAAMLLKYGLGEEKAAKMIEDAVVDALNKGFRTGDIYSPGNKLVGCKEMGEEVLKSVDSKVPV
binding [1]: binds weakly

B4: methylthioalkylmalate synthase 1 (MAM1) (enzyme, UniProt Q9FG67 1-506)
chain: MASSLLTSSVMIPTTGSTVVGRSVLPFQSSLHSLRLTHSYKNPALFISCCSSVSKNAATSSTDLKPVVERWPEYIPNKLPDGNYVRVFDTTLRDGEQSPGGSLTPPQKLEIARQLAKLRVDIMEVGFPGSSEEELETIKTIAKTVGNEVDEETGYVPVICAIARCKHRDIEATWEALKYAKRPRILVFTSTSDIHMKYKLKKTQEEVIEMAVSSIRFAKSLGFNDIQFGCEDGGRSDKDFLCKILGEAIKAGVTVVTIGDTVGINMPHEYGELVTYLKANTPGIDDVVVAVHCHNDLGLATANSIAGIRAGARQVEVTINGIGERSGNASLEEVVMALKCRGAYVINGVYTKIDTRQIMATSKMVQEYTGLYVQAHKPIVGANCFVHESGIHQDGILKNRSTYEILSPEDIGIVKSQNSGLVLGKLSGRHAVKDRLKELGYELDDEKLNAVFSLFRDLTKNKKRITDADLKALVTSSDEISLEKLNGANGLKSNGYIPVPQVSSNV
binding [4]: no binding | binding [1]: no binding | binding [5]: no binding | binding [2]: no binding | binding [6]: no binding | binding [7]: no binding | binding [3]: no binding

B5: methylthioalkylmalate synthase 3 (MAM3) (enzyme, UniProt Q9FN52 1-503)
chain: MASLLLTSSSMITTSCRSMVLRSGLPIGSSFPSLRLTRPYDKATLFVSCCSAESKKVATSATDLKPIMERRPEYIPNKLPHKNYVRVLDTTLRDGEQSPGAALTPPQKLEIARQLAKLRVDIMEVGFPVSSEEEFEAIKTIAKTVGNEVDEETGYVPVICGIARCKKRDIEATWEALKYAKRPRVMLFTSTSEIHMKYKLKKTKEEVIEMAVNSVKYAKSLGFKDIQFGCEDGGRTEKDFICKILGESIKAGATTVGFADTVGINMPQEFGELVAYVIENTPGADDIVFAIHCHNDLGVATANTISGICAGARQVEVTINGIGERSGNAPLEEVVMALKCRGESLMDGVYTKIDSRQIMATSKMVQEHTGMYVQPHKPIVGDNCFVHESGIHQDGILKNRSTYEILSPEDVGIVKSENSGIVLGKLSGRHAVKDRLKELGYEISDEKFNDIFSRYRELTKDKKRITDADLKALVVNGAEISSEKLNSKGINDLMSSPQISAVV
binding [4]: no binding | binding [1]: no binding | binding [5]: no binding | binding [2]: no binding | binding [7]: no binding | binding [3]: no binding

— article PMC7876033
